Source: PubChem BioAssay AID686979 (National Center for Advancing Translational Sciences (NCATS), 2013)
In all, about 420,000 compounds went through this assay and about 50,000 (12%) were called active. The inconclusive results got no clear call from the source; some entries with a clear call stand among them for comparison. Calls follow the shape of the dose curve; as a rule, active = well fitted inhibition curve with a large enough effect; inconclusive = small, poorly fitted or top-dose-only effect; inactive = flat fitted curve, though single readings scatter. Potencies of inconclusive entries are left out as doubtful fits.

Assay: qHTS for Inhibitors of human tyrosyl-DNA phosphodiesterase 1 (TDP1): qHTS in cells in presence of CPT; also: nearly all actives have a fitted effect of over 55% in size
Conditions: chicken DT40 Tdp1-/-;hTDP1 cells + 20 nM CPT, ATP luminescence, 48 h; activity change, negative = growth inhibition: at 46.2 µM (top of the series) unless noted
Outline: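 Chicken DT40 Tdp1-/- cells stably complemented with human TDP1 were seeded at 400 cells/well in medium containing 20 nM camptothecin, exposed to pin-transferred compounds, and grown at 37 °C for at least 48 hr. Viability was read as ATP luminescence.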
% is scaled to controls: 0 for no effect and ±100 for the full control effect; potency is read from the fitted curve at half-maximal effect; tags tell the direction and shape of the fitted curve.

For `c1ccc(N=P(c2nc3ccccc3o2)(N2CCOCC2)N2CCOCC2)cc1`, which Potency is on record?
The Potency was inconclusive [inhibitor, partial curve, poor fit].

For `CCn1nc(C)c(CN2CCN(Cc3ccc(OC)c(C)c3C)C(CCO)C2)c1C` (configuration not stated), which Potency is on record?
The Potency was inconclusive [inhibitor, single point].

For `CCOC(=O)N1CCN(C(=O)CSCC(=O)Nc2nc(-c3ccc(C)cc3)cs2)CC1`, which Potency is on record?
Its Potency is active: 16.4 µM.

With `CCc1nc2c(OCCOC)cccn2c1N(C)C(=O)Nc1ccccc1OC` as the compound, how does the Potency read?
Its Potency is “inactive”.

For `O=C(O)c1ccc(-n2c(/C=C/c3ccccc3)nc3ccccc3c2=O)cc1`, which Potency is on record?
Its Potency is inconclusive [inhibitor, single point].

For `CNC(=O)c1ccc(CSc2nc3cccnc3n2Cc2cccc(F)c2)cc1`, which Potency is on record?
Its Potency is active: 3.66 µM.

Which Potency does the source give for `CCc1ccc(-c2nc(SCC(=O)NCC3CCCO3)c(-c3ccc(F)cc3)[nH]2)cc1` (configuration not stated) here?
Its Potency is inconclusive [inhibitor, single point].

Which Potency does the source give for `COc1cccc(-c2cc(C(=O)Nc3c(C)nn(Cc4ccccc4)c3C)no2)c1` here?
The Potency was inconclusive [inhibitor, single point].

Which Potency does the source give for `CCN1C(=O)/C(=C\C=C2/C=CC=CN2CC)SC1=S` here?
Its Potency is inconclusive [inhibitor, partial curve, poor fit].

Which Potency does the source give for `COc1ccc(Oc2ncc3nc(-c4ccccc4)c(=O)n(Cc4cccs4)c3n2)cc1` here?
The Potency was inconclusive [inhibitor, single point].

Which Potency does the source give for `O=C(N/N=C/c1c(O)ccc2ccccc12)Nc1ccccc1` here?
The Potency was active: 25.9 µM.

For `O=C1CSc2ccc(C(=O)NCCc3ccc(Cl)cc3Cl)cc2N1`, which Potency is on record?
The Potency was inconclusive [inhibitor, single point].

Which Potency does the source give for `CC(C)C(=O)Nc1ccc(Oc2ccc3c(c2)C(=O)NC3=O)cc1` here?
The Potency was “inactive”.

For `Cc1cccc(S(=O)(=O)N(C)C[C@H]2OCc3cnnn3CCCC(=O)N([C@@H](C)CO)C[C@H]2C)c1`, which Potency is on record?
The Potency was “inactive”.

For `CCCN(CCC)CC(O)COc1ccc([N+](=O)[O-])cc1` (configuration not stated), which Potency is on record?
The Potency was “inactive”.

With `Cc1nc(SCc2ccccc2)c2oc3ccccc3c2n1` as the compound, how does the activity change, negative = growth inhibition read?
Its activity change, negative = growth inhibition is inconclusive: -37.2% [inhibitor].

Which Potency does the source give for `O=C(CN1C(=O)NC2(CCCc3ccccc32)C1=O)NC1CCCCC1` (configuration not stated) here?
Its Potency is “inactive”.

With `COC(=O)CCc1c(COC(C)=O)[nH]c(C(=O)OCc2ccccc2)c1C` as the compound, how does the Potency read?
Its Potency is “inactive”.

Which Potency does the source give for `CCCCn1c(N)c(N(CCOC)C(=O)c2ccc(-c3cccc(C(F)(F)F)c3)o2)c(=O)[nH]c1=O` here?
Its Potency is “inactive”.

For `Cc1ccc2nc(SCC(=O)Nc3cc(C(C)(C)C)nn3-c3ccccc3)[nH]c2c1`, which activity change, negative = growth inhibition is on record?
The activity change, negative = growth inhibition was inconclusive: -31% [inhibitor].

For `CCOC(=O)c1ccc(-c2ccc(-c3cc(=O)oc4cc(OC)c(OC)c(OC)c34)cc2)cc1`, which Potency is on record?
The Potency was active: 18.4 µM.

With `CN(Cc1ccccc1Br)C(=O)CN1C(=O)NC2(CCCCCC2)C1=O` as the compound, how does the Potency read?
The Potency was inconclusive [inhibitor, single point].

For `Cn1cccc1/C=C1\CCC/C(=C\c2cccn2C)C1=O`, which Potency is on record?
Its Potency is inconclusive [inhibitor, partial curve].

With `Cc1ccc(N(Cc2cc3ccc(C)cc3[nH]c2=O)C(=O)c2cccs2)cc1` as the compound, how does the Potency read?
The Potency was “inactive”.

With `Cc1ccc2nc(-c3cccc(Cl)c3)c(Nc3ccc4c(c3)OCO4)n2c1` as the compound, how does the Potency read?
Its Potency is inconclusive [inhibitor, single point].

With `Cc1ccc(C(C)(C)c2ccc(C)cc2)cc1` as the compound, how does the Potency read?
The Potency was “inactive”.

Which Potency does the source give for `CC(OC(=O)c1ccc(OCC2CCCO2)cc1)C(=O)N(C)Cc1ccccc1` (configuration not stated) here?
Its Potency is inconclusive [inhibitor, single point].

With `Cc1ccc(C)c(NC(=O)N2CCc3cc(S(=O)(=O)N4CCC(C)CC4)ccc32)c1` as the compound, how does the Potency read?
The Potency was inconclusive [inhibitor, single point].

With `CCN(CC)S(=O)(=O)c1ccc2c(c1)oc(=O)n2CC(=O)N(C)C1CCCCC1` as the compound, how does the activity change, negative = growth inhibition read?
The activity change, negative = growth inhibition was inconclusive: 4.07% [inhibitor].

Which Potency does the source give for `COc1ccc(N2CCN(C(=O)c3ccc(SC)cc3OC)CC2)cc1` here?
Its Potency is “inactive”.

For `CC1=NN2C(=N)/C(=C\c3cc(C)n(Cc4ccccc4)c3C)C(=O)N=C2S1`, which Potency is on record?
The Potency was “inactive”.

Which Potency does the source give for `COC(=O)c1sc(NC(=O)c2ccc([N+](=O)[O-])o2)c(C#N)c1C` here?
The Potency was active: 9.2 µM.

For `CN(C)c1ccc(NC(=O)CSc2nc3ccccc3c(=O)n2C2CCCCC2)cc1`, which Potency is on record?
Its Potency is inconclusive [inhibitor, single point].

For `Cc1cccc(C)c1OCC(=O)N1CC2(C)CC1CC(C)(C)C2` (configuration not stated), which Potency is on record?
The Potency was inconclusive [inhibitor, single point].

With `O=C1N/C(=C/c2cccn2-c2ccc(F)cc2)C(=O)N1Cc1ccccc1` as the compound, how does the Potency read?
Its Potency is inconclusive [inhibitor, single point].

Which Potency does the source give for `CCOC(=O)Cn1cc(-c2ccccc2)nn1` here?
Its Potency is “inactive”.

With `CC(C)NC(=O)CC(=O)N/N=C/c1ccccc1F` as the compound, how does the Potency read?
Its Potency is “inactive”.

For `Nc1[nH]c(C(=O)c2ccccc2)c(-c2ccc(Cl)cc2)c1C(=O)NCCc1c[nH]c2ccccc12`, which Potency is on record?
The Potency was inconclusive [inhibitor, single point].

Which Potency does the source give for `Cc1ccc(-c2noc(CNCCCN(C)C)n2)cc1` here?
Its Potency is “inactive”.

With `C[C@@H]1CN(Cc2ccc3c(c2)CN(C(=O)c2ccc(Oc4ccccc4)o2)CCO3)C[C@H](C)O1` as the compound, how does the activity change, negative = growth inhibition read?
The activity change, negative = growth inhibition was inactive: -14% [at 9.04 µM].

With `CCn1c(C)c(P(=O)(N2CCOCC2)N2CCOCC2)c2ccccc21` as the compound, how does the Potency read?
The Potency was “inactive”.

Which Potency does the source give for `COc1cc(S(=O)(=O)NCc2ccccn2)ccc1Cl` here?
Its Potency is inconclusive [inhibitor, single point].

With `CCCSc1ccc(C(=O)Nc2ccc(Cl)cc2)cn1` as the compound, how does the Potency read?
Its Potency is “inactive”.

Which Potency does the source give for `Cc1cc(C)c(S(=O)(=O)N(C)CC(=O)NC2CCCC2)c(C)c1` here?
Its Potency is inconclusive [inhibitor, partial curve, poor fit].

With `c1ccc(COc2cccc(-c3cc4nc(NCc5cccs5)ccn4n3)c2)cc1` as the compound, how does the Potency read?
Its Potency is inconclusive [inhibitor, single point].

With `O=C(Nc1cccc(-c2nc3ccccc3[nH]2)c1)c1ccccc1F` as the compound, how does the Potency read?
The Potency was inconclusive [inhibitor, single point].

For `COc1ccc(-c2cccc(NC(=O)c3ccc4c(c3)OCO4)c2)nn1`, which Potency is on record?
Its Potency is inconclusive [inhibitor, single point].

Which Potency does the source give for `Cc1ccsc1CN(C(=O)c1ccc(Br)cc1)C1CCS(=O)(=O)C1` (configuration not stated) here?
The Potency was “inactive”.

With `Cc1ccc(NC(=O)N2CCN3CCCCC3C2)cc1F` (configuration not stated) as the compound, how does the Potency read?
Its Potency is “inactive”.

Which Potency does the source give for `COc1ccccc1CNC(=O)c1ccc2c(c1)nnn2C1CCCC1` here?
The Potency was active: 18.4 µM.

Which Potency does the source give for `CC1CCN(C(=O)CSc2ccc(-c3cccnc3)nn2)CC1` here?
The Potency was inconclusive [inhibitor, single point].

With `CC(=O)Nc1cccc(NC(=O)c2ccc3c(c2)CCN3S(=O)(=O)c2ccccc2)c1` as the compound, how does the Potency read?
Its Potency is inconclusive [inhibitor, single point].

With `CCc1ccc(S(=O)(=O)c2nnn3c2nc(NCc2cccc(OC)c2)c2cc(Cl)ccc23)cc1` as the compound, how does the Potency read?
Its Potency is inconclusive [inhibitor, single point].

For `Cn1c(/C=N/NC(=O)c2ccccc2Br)nc2ccccc21`, which Potency is on record?
The Potency was inconclusive [inhibitor, single point].

Which Potency does the source give for `CCCCN(CCCC)CCCN1CC(=O)N2[C@@H](Cc3c([nH]c4ccccc34)C2(C)C)C1=O` here?
The Potency was inconclusive [inhibitor, single point].

For `Cc1[nH]nc2c1C(c1ccsc1C)C(C#N)=C(N)O2` (configuration not stated), which Potency is on record?
The Potency was inconclusive [inhibitor, single point].

Which Potency does the source give for `Cc1cc(Nc2cccc(C(=O)O)c2)n2ncnc2n1` here?
Its Potency is “inactive”.

For `Cn1c(-c2ccccc2)cnc1SCC(=O)N1CCCc2ccccc21`, which Potency is on record?
The Potency was inconclusive [inhibitor, single point].

For `CN(C)c1ccc(/C=C2\C=Cc3ccccc32)cc1Br`, which Potency is on record?
Its Potency is inconclusive [inhibitor, single point].

With `CCCn1c(=O)c(C(=O)NCCc2ccccc2)c(O)c2ccccc21` as the compound, how does the Potency read?
The Potency was active: 13 µM.

For `CN(C)CCNC(C(=O)Nc1cccc(C(F)(F)F)c1)c1ccccc1` (configuration not stated), which Potency is on record?
The Potency was “inactive”.

For `COc1ccc(CN(Cc2nc3ccccc3c(=O)[nH]2)C(=O)C(C)(C)C)cc1`, which Potency is on record?
The Potency was inconclusive [inhibitor, single point].

With `COc1ccccc1NC(=O)Cn1cc(C(=O)c2ccncc2)c(=O)c2cc(C)ccc21` as the compound, how does the Potency read?
The Potency was “inactive”.

With `COc1ccc(OCC(=O)N2CCN(S(=O)(=O)c3ccccc3[N+](=O)[O-])CC2)cc1` as the compound, how does the Potency read?
The Potency was “inactive”.

Which activity change, negative = growth inhibition does the source give for `CC(C)c1c(C(=O)N(C)Cc2cccc3ncccc23)cnn1-c1nccc(-c2ccco2)n1` here?
The activity change, negative = growth inhibition was inactive: -9.07% [at 9.04 µM].

For `Cc1ccc(NC(=O)c2ncc(Cl)c(Cl)c2Cl)cc1C`, which Potency is on record?
The Potency was inconclusive [inhibitor, partial curve].

Which Potency does the source give for `O=C(Nc1ccc(S(=O)(=O)N2CCCCC2c2cccnc2)cc1)c1ccc(F)cc1` (configuration not stated) here?
Its Potency is active: 23.1 µM.

For `O=C(Cc1ccsc1)Nc1cc(F)ccc1F`, which Potency is on record?
Its Potency is “inactive”.

Which Potency does the source give for `C=C1CCN(C(CC(C)C)C(=O)OC)S(=O)(=O)c2ccccc21` (configuration not stated) here?
Its Potency is inconclusive [inhibitor, partial curve].

With `COc1ccc(OC)c(C(=O)NC(CC(N)=O)c2ccc(N3CCN(c4ccccc4)CC3)c([N+](=O)[O-])c2)c1` (configuration not stated) as the compound, how does the Potency read?
Its Potency is inconclusive [inhibitor, single point].

Which Potency does the source give for `CC(C)C[C@H]1CN([C@@H](CC(C)C)CN2CCC[C@@H]2CN2C(=O)C(=O)NC[C@@H]2Cc2ccccc2)C(=O)C(=O)N1CC1CCCCC1` here?
Its Potency is inconclusive [inhibitor, single point].

Which Potency does the source give for `COc1ccc(S(=O)(=O)N2CCSC2c2ccc(N)cc2)cc1` (configuration not stated) here?
Its Potency is “inactive”.
